# Assay results reported in the supplement of paper PMC11417369.
# ± gives the standard deviation of the averaged measurements. This is one part of the list.
# Tested on: PfAP2-EXP AP2 domain (GST-tagged)
# Experiment: gcPBM binding intensity (ln(normalized median fluorescence intensity)); higher = stronger DNA binding
# Method in brief: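 Binding intensity is defined as the maximum Masliner-normalised natural-log median intensity across replicate spots for either probe orientation. It was measured on an Agilent 4 × 180k array of primer-extended double-stranded 36-bp intergenic genomic probes and negative controls, to which GST-tagged P. falciparum DNA-binding domains made in E. coli were applied for 1 h in 1× PBS with 1% milk, 0.2 mg/ml BSA, 0.5% salmon testes DNA and 0.03% Triton X-100. Detection was by Alexa488 anti-GST antibody and scanning at 488 nm.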
row,Sequence,gcPBM binding intensity (ln)
1,TACAAACACCCATATACACACAAAAAAAAAATAAAA [CACACA_site5421],8.4 ± 0.59
2,AGAAAAACTTATATGATACACACGATAAACAAAATA [CACACA_site1038],8.72 ± 0.59
3,TATATAATATATATATGTACATATATATATGTTTTT [XGTACX_site3347],8.32 ± 0.2
4,TATACATAAAACAGTTCACACATTGTATGAATATAT [CACACA_site4751],8.54 ± 0.57
5,TACGTATTTTAATATTTACACACTTATTTTTTATAT [CACACA_site7924],8.78 ± 0.44
6,TTGTTTCTTTTTTTTTGTACATATATATTGTATATT [XGTACX_site7602],8.86 ± 0.6
7,AATTTTTCAAATTAATGTACTTGTTATAAATTGTAA [XGTACX_site5428],8.13 ± 0.38
8,GGACAACAAACAAACACACACAAAAAAAAAATAAAA [CACACA_site3791],8.5 ± 0.68
9,TATATCTGTTTATATTGTACACATATATATATATAT [XGTACX_site714],10 ± 0.27
10,GGCAATACATAATAATGTACATAATTATATAATATT [XGTACX_site3739],8.62 ± 0.45
11,TATATATATATATAATGTACATATAATATATTTATT [XGTACX_site7892],9.85 ± 0.42
12,TGCATATACGCAAGCACACATATATATATATATATA [CACACA_site1069],10.2 ± 0.51
13,TTTTGATTTCCTATTGCACACTTTTTTTAAGTTTAT [CACACA_site1056],8.94 ± 0.32
14,TAAATATATTAATACACACACGATATGTACAAAAAA [CACACA_site540],8.79 ± 0.36
15,GCTTAATGTCATATATCACACATGAAAATATATATA [CACACA_site5089],8.62 ± 0.45
16,TTAAAATTAAAAATGCGTACACATATACATAAAAAA [XGTACX_site1915],8.73 ± 0.3
17,ATTAATTTTAATAAAGGTACACGTAGTTTTTTATTA [XGTACX_site7868],8.16 ± 0.34
18,TATATATATATATATTGTACTGAACGTTTTTTTTTG [XGTACX_site8060],10.2 ± 0.39
19,AACAAAACCTTATATGTACACACATATACATCACAC [CACACA_site9037],8.75 ± 0.23
20,AATTTATAATTATAGAGTACATATTTTTAATATATA [XGTACX_site2566],8.1 ± 0.28
21,ACAGCTACCAGATACTGTACTTTTCTCCAGACTGCA [XGTACX_site2541],8.64 ± 0.35
22,TATATTTTGTTCTTTCCACACACAAATACATATATT [CACACA_site9348],8.9 ± 0.48
23,ATATACATAATCTTCTTGCACTTTTTTTTTTTTTTT [GTGCAC_site9410],8.9 ± 0.36

row,Sequence,gcPBM binding intensity (ln)
1,ATGTGATATAAGTACACACACATATGTATTTATAAC [CACACA_site6942],8.62 ± 0.18
2,GTAATAATTTTTTGTAGTACACAAAAATTCATATTT [XGTACX_site2699],8.63 ± 0.31
3,ATATACACTTAATTTTTTATAAAAAAAAATTTATAT [CACACA_negctrl_site498],8.24 ± 0.37
4,ATTTCATTTTATAAGTGTACAATAAAAAAAAAAAAA [XGTACX_site8677],8.68 ± 0.42
5,CTTAAAAAAACCTTAACACACATAAACTCTAATTTA [CACACA_site7430],8.14 ± 0.49
6,GTTTACATTAAAAATTGTACTCTGTATGAATAATAT [XGTACX_site80],8.28 ± 0.35
7,AAATTTGATATAAAAAGTACAAAATGTTCCTCAGCT [XGTACX_site809],8.56 ± 0.25
8,ATATAAACAGAAAATAGTACTTTATATTGAAAAAAA [XGTACX_site7183],8.49 ± 0.4
9,GATGATACAAAGTAATGTACATAAATACACATATTG [XGTACX_site3177],8.48 ± 0.3
10,CATTATGTCGTAAATACACACATACCTATACATACA [CACACA_site6763],8.67 ± 0.24
11,AATATATAGCTAAAAACACACAAATATATACGCATA [CACACA_site3608],8.85 ± 0.42
12,TATACACATATATAAACACACAAAAAAAAAAAAAAA [CACACA_site7041],8.19 ± 0.63
13,CCATAAGATATATGTAGTACATATTATATATATATA [XGTACX_site2104],9.89 ± 0.26
14,TTTATATGATATATTACACACAAAAAAAAAAAAAAA [CACACA_site3549],8.21 ± 0.51
15,TAGATACTTGTCATGGGTACATATCGTACCTTTTGG [XGTACX_site6781],8.5 ± 0.52
16,CTCTTCTATATATAAGCATGCATTCATAATAATTTA [TGCATGCA_site679],9.3 ± 0.29
17,GATAATTTTTTTCTCACACACAAATATTTTAATCAT [CACACA_site3666],8.57 ± 0.38
18,AAATATATTATATCATATATTAAAGCATATATTAAA [CACACA_negctrl_site1624],8.17 ± 0.41
19,GAATATTCACATACTTGTACATATATATATATATAT [XGTACX_site7302],10.2 ± 0.68
20,AGGTAAAAATGGTAAGTGCATTAATGATAAAAAATG,8.9 ± 0.83
21,AAAAAAAAAAAACACACACACACACCGACACATACA [CACACA_site5576],8.35 ± 0.27
22,CAAAAAAAATAAAACACACACACAAAAAAATAAAAA [CACACA_site466],8.6 ± 0.61
23,TATAAGAATAAAAAGGGTACATAAAATAATAATATA [XGTACX_site2355],8.82 ± 0.38

row,Sequence,gcPBM binding intensity (ln)
1,GTTTACATAGATAACTGTACGCAATGATATTAGACA [XGTACX_site1320],8.625 ± 0.064
2,TGGCAAAATAGGCACACACACATATACCTATAGATT [CACACA_site7168],8.49 ± 0.45
3,GTAAATATATAAACATGTACATATATAAATATATAA [XGTACX_site7262],8.51 ± 0.33
4,ATATTTTGGGGACTTTTTAAAAAAGAAGTATTAAAA [CACACA_negctrl_site1228],8.63 ± 0.37
5,TAATAATAGTACTGACATCGAAATATTATTAAAAAT [CACACA_negctrl_site255],8.3 ± 0.39
6,AAAATATATACACAAACATGCATATAATAAATAAAT [TGCATGCA_site711],8.71 ± 0.38
7,ATATTTCTGTGTGGATGTACATTATTAGCAGGCTTT [XGTACX_site6496],8.8 ± 0.4
8,CAAAATAATAATAAAAGTACTAACATATTTATGAAA [XGTACX_site6078],8.47 ± 0.42
9,TTCTTTTTATTTATATTTTCCCCTCTCTATAGCTAT [XGTACX_negctrl_site102],8.84 ± 0.49
10,ATAATTCAAAAAAACACACAAATTACAAAATAAACT [CACACA_site6264],8.77 ± 0.38
11,AAGGTGGGAAAAAATAGTACACAACAAAAATGTATG [XGTACX_site8741],8.75 ± 0.35
12,ACATATAAACTGTATACACACAAATATTGCATATAT [CACACA_site6804],8.88 ± 0.42
13,ATATATCTATATGTGTGTACATATAAGTATTTATAT [XGTACX_site5333],8.4 ± 0.3
14,AGAAAAGAGAAATGGGCACACACACCCATATTATAT [CACACA_site8433],8.29 ± 0.38
15,TACATTCTAAATATTACACACTTTATAAAATAATAA [CACACA_site4069],8.26 ± 0.39
16,ATATATATAAATATATGTACTAATATATACATATAT [XGTACX_site2289],8.22 ± 0.092
17,TTGTATCATATATTATGTACATATTTATTTATTATC [XGTACX_site7723],8.45 ± 0.29
18,ATATTATATCTAATCGTGCACAACTGTACATTTGTC,9.13 ± 0.092
19,CCCATGTAATATTAAACACACACTCATATAACACAA [CACACA_site7906],8.81 ± 0.83
20,ATATTTAAATATATTTATATATATAAAAAAAAATAT [GTGCAC_negctrl_site312],8.56 ± 0.39
21,CAAAATATTTAAAAAAGTACTTAAAATAAATTCAAA [XGTACX_site6866],8.48 ± 0.38
22,AATATAAATAAAAACACACACACACGGATATTTATA [CACACA_site7134],9.04 ± 0.39
23,CACACAACTATCAAGGTGCTAAAATGAAATAATATA [GTGCAC_site9871],8.7 ± 0.35

row,Sequence,gcPBM binding intensity (ln)
1,AAAAAAATAAAAAATATATAAATAATTAATACATGT [GTGCAC_negctrl_site633],8.31 ± 0.36
2,AAACCAAGGCACAATAATTAAATAAATAAAATCATG [GTGCAC_negctrl_site574],8.4 ± 0.58
3,ATATAATTTTTCAAGTGTACTTTTTTTTTTTAACAT [XGTACX_site3050],8.57 ± 0.47
4,ATTTATATATATATAGGTACACATATTTATATATAA [XGTACX_site8487],8.23 ± 0.2
5,TCATTCATATGTTACACACACACACCCACATAAAAA [CACACA_site3245],8.78 ± 0.47
6,CATAATTATGCAATTGCACACAACTATCATTTTTTT [CACACA_site2997],9.06 ± 0.27
7,TCACTAAACCATTAGAGTACTTGACATATAATGAGC [XGTACX_site3272],8.29 ± 0.2
8,TATATATAAAAAACATGTACACAAATTTACATACAT [XGTACX_site4777],8.54 ± 0.26
9,AAGAGTTAAAAAAATACACACATATATATTTTTTTA [CACACA_site1980],8.34 ± 0.41
10,TTTTTGTATGCTTCCCGACTACATTATGCCATAAAT [CACACA_negctrl_site136],9.12 ± 0.47
11,GATTATATATGAAAATGTACAAATATATATATATAT [XGTACX_site5963],9.96 ± 0.28
12,AAAAAAAAAAAAAAAAAAAAAAAAAAATACATATGT [XGTACX_negctrl_site95],9.15 ± 0.042
13,TAAAAGGATGCATATACACACATATAGATTTATATA [CACACA_site7336],8.32 ± 0.47
14,TTTTTTTTGTATTTTTCACACACACCGAAGTAAACA [CACACA_site8575],8.71 ± 0.43
15,ATATAATCTGAGTGCACACAAATAAATAAACATACA [CACACA_site422],8.95 ± 0.25
16,TTAAATTCGTCATTTTAAAATAATACAAAAGTTCAA [CACACA_negctrl_site19],8.37 ± 0.43
17,AGTTGCATACATTGAAGTACAGAACATTTATATATA [XGTACX_site240],8.57 ± 0.4
18,TTTTTCCTTATTAATACACACATTCACCTTTTAAAT [CACACA_site479],8.79 ± 0.4
19,ATTTATAAAATATAATTACATTTTTAAATAATAAAA [GTGCAC_negctrl_site43],8.13 ± 0.35
20,CTTATGTGCATACCTACACACTTACCTATATTTATA [CACACA_site7411],8.72 ± 0.17
